Data as given in the supplement of paper PMC8728848.
The list shows a part of the results.

How the values were obtained:
Test in all cases: glycan array binding signal (z-score within array); higher = stronger binding
Settings in all cases: glycan notation: IUPAC condensed, linker removed
[1] = molecular target: Neu5Ac(a2-8)Neu5Ac(a2-3)[Gal(b1-3)GalNAc(b1-4)]Gal(b1-4)Glc
Procedure, shortened: (§1)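 Arrays were curated from the Consortium for Functional Glycomics database, 3228 in total, and kept only where the protein sequence was available. Binding is expressed as a within-array Z-score. This score was averaged across arrays of the same protein sequence at different concentrations or buffers and across linkers, and negative values can be read as non-binding.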

[2] = molecular target: Neu5Ac(a2-8)Neu5Ac(a2-3)[GalNAc(b1-4)]Gal(b1-4)Glc
Procedure, shortened: as §1

[3] = molecular target: Neu5Ac(a2-8)Neu5Ac(a2-8)Neu5Ac
Procedure, shortened: as §1

[4] = molecular target: Neu5Ac(a2-8)Neu5Ac(a2-8)Neu5Ac(a2-3)Gal(b1-4)Glc
Procedure, shortened: as §1

[5] = molecular target: Neu5Ac(a2-8)Neu5Ac(a2-8)Neu5Ac(a2-3)[Gal(b1-3)GalNAc(b1-4)]Gal(b1-4)Glc
Procedure, shortened: as §1

[6] = molecular target: Neu5Ac(a2-8)Neu5Ac(a2-8)Neu5Ac(a2-3)[GalNAc(b1-4)]Gal(b1-4)Glc
Procedure, shortened: as §1

[7] = molecular target: Neu5Ac(a2-8)Neu5Ac(a2-8)Neu5Ac(a2-8)Neu5Ac(a2-3)[GalNAc(b1-4)]Gal(b1-4)Glc
Procedure, shortened: as §1

[8] = molecular target: Neu5Ac(a2-8)Neu5Gc(a2-3)Gal(b1-4)GlcNAc
Procedure, shortened: as §1

Neu5Ac(b1-6)GalNAc = molecular target: Neu5Ac(b1-6)GalNAc
Procedure, shortened: as §1

[9] = molecular target: Neu5Ac(b2-6)Gal(b1-4)GlcNAc
Procedure, shortened: as §1

Neu5Ac(b2-6)GalNAc = molecular target: Neu5Ac(b2-6)GalNAc
Procedure, shortened: as §1

[10] = molecular target: Neu5Ac9Ac(a2-3)Gal(b1-3)GlcNAc
Procedure, shortened: as §1

[11] = molecular target: Neu5Ac9Ac(a2-3)Gal(b1-4)GlcNAc
Procedure, shortened: as §1

[12] = molecular target: Neu5Ac9Ac(a2-6)Gal(b1-4)GlcNAc
Procedure, shortened: as §1

[13] = molecular target: Neu5Gc(a2-3)Gal(b1-3)GlcNAc
Procedure, shortened: as §1

[14] = molecular target: Neu5Gc(a2-3)Gal(b1-3)[Fuc(a1-4)]GlcNAc
Procedure, shortened: as §1

Neu5Gc(a2-3)Gal(b1-4)Glc = molecular target: Neu5Gc(a2-3)Gal(b1-4)Glc
Procedure, shortened: as §1

[15] = molecular target: Neu5Gc(a2-3)Gal(b1-4)GlcNAc
Procedure, shortened: as §1

[16] = molecular target: Neu5Gc(a2-3)Gal(b1-4)GlcNAc(b1-3)Gal(b1-4)GlcNAc(b1-2)Man(a1-3)[Neu5Gc(a2-3)Gal(b1-4)GlcNAc(b1-3)Gal(b1-4)GlcNAc(b1-2)Man(a1-6)]Man(b1-4)GlcNAc(b1-4)GlcNAc
Procedure, shortened: as §1

[17] = molecular target: Neu5Gc(a2-3)Gal(b1-4)[Fuc(a1-3)]GlcNAc
Procedure, shortened: as §1

[18] = molecular target: Neu5Gc(a2-6)Gal(b1-4)GlcNAc
Procedure, shortened: as §1

Neu5Gc(a2-6)GalNAc = molecular target: Neu5Gc(a2-6)GalNAc
Procedure, shortened: as §1

[19] = molecular target: Neu5Gc(a2-8)Neu5Ac(a2-3)Gal(b1-4)GlcNAc
Procedure, shortened: as §1

[20] = molecular target: Neu5Gc(a2-8)Neu5Gc(a2-3)Gal(b1-4)GlcNAc
Procedure, shortened: as §1

[21] = molecular target: Neu5Gc(a2-8)Neu5Gc(a2-3)Gal(b1-4)GlcNAc(b1-3)Gal(b1-4)GlcNAc
Procedure, shortened: as §1

[22] = molecular target: Neu5Gc(a2-8)Neu5Gc(a2-6)Gal(b1-4)GlcNAc
Procedure, shortened: as §1

[23] = molecular target: Neu5Gc(b2-6)Gal(b1-4)GlcNAc
Procedure, shortened: as §1

B1: GSL-I (Griffonia simplicifolia) (protein)
chain: FNLPNFWSDVKDNIIFQGDANTTAGTLQLCKTNQYGNPLQYRAGRALYSDPVQLWDNKTGSVASFYTEFTFFLKITGDGPADGLAFFLAPPDSDVKDAGAYLGLFNKSTATQPSKNQVVAVEFDTWKNTDFPEPSYRHIGINVNSIVSVATKRWEDSDIFSGKIATARISYDGSAKILTVVLSYPDGADYILSHSVDLSKNLPNPIRVGISASTGANQFLTVYVLSWRFSSALQSTSVNAAMGPEIIRTVV
In the case of B1, the “glycan array binding signal (z-score)” value [1] is reported as -0.217, the “glycan array binding signal (z-score)” value [2] is reported as -0.186 and the “glycan array binding signal (z-score)” value [3] is reported as -0.197. For the same binder, the “glycan array binding signal (z-score)” value [4] was -0.235, the “glycan array binding signal (z-score)” value [5] was -0.172 and the “glycan array binding signal (z-score)” value [6] was -0.104. For the same binder, the “glycan array binding signal (z-score)” value [7] was -0.176, the “glycan array binding signal (z-score)” value [8] was -0.15 and the “glycan array binding signal (z-score)” value (Neu5Ac(b1-6)GalNAc) was -0.325. For the same binder, the “glycan array binding signal (z-score)” value [9] was -0.218, the “glycan array binding signal (z-score)” value (Neu5Ac(b2-6)GalNAc) was -0.213 and the “glycan array binding signal (z-score)” value [10] was -0.276. For the same binder, the “glycan array binding signal (z-score)” value [11] was 0.231, the “glycan array binding signal (z-score)” value [12] was -0.275 and the “glycan array binding signal (z-score)” value [13] was -0.164. For the same binder, the “glycan array binding signal (z-score)” value [14] was -0.21, the “glycan array binding signal (z-score)” value (Neu5Gc(a2-3)Gal(b1-4)Glc) was -0.213 and the “glycan array binding signal (z-score)” value [15] was -0.244. The “glycan array binding signal (z-score)” value [16] was -0.241, the “glycan array binding signal (z-score)” value [17] was -0.153 and the “glycan array binding signal (z-score)” value [18] was -0.201. For the same binder, the “glycan array binding signal (z-score)” value (Neu5Gc(a2-6)GalNAc) was -0.124, the “glycan array binding signal (z-score)” value [19] was -0.236 and the “glycan array binding signal (z-score)” value [20] was -0.296. For the same binder, the “glycan array binding signal (z-score)” value [21] was -0.258, the “glycan array binding signal (z-score)” value [22] was -0.145 and the “glycan array binding signal (z-score)” value [23] was -0.099.
